# Test results as given in PMC4336329 (PLoS ONE, 2015).
# About 2,200 (0.71%) of roughly 310,000 compounds showed an effect of 50% or more. Effects have a minus sign here. Some of the results follow.
# Target: human ether-à-go-go-related gene (hERG) potassium channel (human, UniProt Q12809)
# Assay: primary screen, population patch clamp on CHO cells stably expressing hERG
# Chain of human ether-à-go-go-related gene (hERG) potassium channel (Q12809 whole entry, looked up): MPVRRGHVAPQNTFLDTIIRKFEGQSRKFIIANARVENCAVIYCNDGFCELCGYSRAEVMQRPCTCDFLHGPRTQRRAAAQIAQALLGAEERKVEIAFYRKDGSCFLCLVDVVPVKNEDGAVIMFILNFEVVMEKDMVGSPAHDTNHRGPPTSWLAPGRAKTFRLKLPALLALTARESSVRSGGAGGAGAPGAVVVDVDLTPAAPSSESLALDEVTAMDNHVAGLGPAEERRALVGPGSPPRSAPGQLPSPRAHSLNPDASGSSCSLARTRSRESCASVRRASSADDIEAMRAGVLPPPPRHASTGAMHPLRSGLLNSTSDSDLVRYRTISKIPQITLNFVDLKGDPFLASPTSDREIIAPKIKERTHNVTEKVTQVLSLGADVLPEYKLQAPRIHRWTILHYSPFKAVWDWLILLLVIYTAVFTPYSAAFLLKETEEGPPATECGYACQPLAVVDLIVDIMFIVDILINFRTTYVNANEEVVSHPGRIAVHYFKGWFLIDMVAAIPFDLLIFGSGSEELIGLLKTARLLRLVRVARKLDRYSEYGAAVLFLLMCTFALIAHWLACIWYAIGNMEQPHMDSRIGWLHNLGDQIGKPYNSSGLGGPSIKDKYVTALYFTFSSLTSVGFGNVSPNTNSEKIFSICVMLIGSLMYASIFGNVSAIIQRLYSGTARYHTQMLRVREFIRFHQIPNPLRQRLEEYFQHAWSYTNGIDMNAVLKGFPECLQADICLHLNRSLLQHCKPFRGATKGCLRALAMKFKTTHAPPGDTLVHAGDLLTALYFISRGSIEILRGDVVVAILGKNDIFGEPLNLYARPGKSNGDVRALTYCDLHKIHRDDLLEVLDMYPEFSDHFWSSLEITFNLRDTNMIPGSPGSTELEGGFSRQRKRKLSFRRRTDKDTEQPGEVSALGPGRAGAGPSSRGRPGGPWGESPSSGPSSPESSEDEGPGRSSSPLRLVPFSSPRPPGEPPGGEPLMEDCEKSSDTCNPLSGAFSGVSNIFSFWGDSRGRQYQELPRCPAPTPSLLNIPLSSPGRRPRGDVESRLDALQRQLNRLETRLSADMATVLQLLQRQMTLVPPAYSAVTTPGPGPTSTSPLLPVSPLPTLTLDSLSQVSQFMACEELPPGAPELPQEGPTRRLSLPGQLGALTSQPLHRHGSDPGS
row,Structure (SMILES),"hERG current change (%, negative = inhibition) at 1uM"
1,Cc1nc2c(C)cccc2c2c1COC2,14%
2,Cl.O=S(=O)(NCCN1CCOCC1)c1ccc(F)c(Cl)c1,13.5%
3,NC(=O)c1ccc(NC(=O)CN2CCOCC2)cc1,17%
4,O=c1oc2c3c(nn2c2ccccc12)CCCC3,9.68%
5,COC(=O)c1cc(NC(=O)CC2Oc3ccccc3NC2=O)cc(C(=O)OC)c1 (stereo not drawn),13%
6,Cc1ccccc1-c1nc2ccccc2c(=O)n1/N=C/c1ccccc1[N+](=O)[O-],5.94%
7,Cc1ccc(/C=N/N2CCN(c3ccccn3)CC2)cc1,12.2%
8,Nc1sc2c(c1C(=O)c1ccccc1)CCCC2,-13.8%
9,COc1ccc(C(=O)c2no[n+]([O-])c2C(=O)c2ccc(OC)cc2)cc1,-10%
10,Cn1c(=O)c2c(ncn2CC(=O)N2CCN(c3ccc([N+](=O)[O-])cc3)CC2)n(C)c1=O,-69.6%
11,CC(C)[C@@H](COc1ccccc1)N1CCN(Cc2ccccc2)CCC1=O,0.973%
12,O=C(C1=C(O)C(=O)N(CCN2CCOCC2)C1c1cccc(Br)c1)c1cccs1 (stereo not drawn),7.09%
13,CCOc1ccc(C(NC(C)=O)c2ccc(OC)c(OC)c2)cc1 (stereo not drawn),11.1%
14,O=C(COC(=O)c1ccc(O)cc1)Nc1cccc(S(=O)(=O)NC2=NCCC2)c1,13.7%
15,Cc1ccc(CN(C(=O)c2cc(=O)c3cc(Cl)c(C)cc3o2)C2CCS(=O)(=O)C2)cc1 (stereo not drawn),3.73%
16,Cc1cccc(-c2ccc3ncnc(NCc4cccs4)c3c2)c1,9.92%
17,CNC(=O)c1nc(C)n(-c2ccc(Cl)cc2Cl)n1,5.45%
18,CCOC(=O)CSc1nc2ccc(N3CCOCC3)cc2c(=O)n1Cc1ccccc1,5.21%
19,CCC(C(=O)OCC(=O)N1CCN(S(=O)(=O)c2ccc(C)cc2C)CC1)c1ccccc1 (stereo not drawn),-2.2%
20,CC(=NCC1CCCO1)C1=C(O)CC(C)(C)CC1=O (stereo not drawn),-6.56%
21,O=C(CCCc1cccs1)Nc1nc(-c2ccc(F)cc2)cs1,12%
22,O=C(O)c1ccc(NCc2nc3ccccc3n2Cc2ccccc2F)cc1,11.7%
23,CC(=O)OCC1OC(OCc2cn(C[C@H]3CC[C@@H]([C@@H]4CC[C@H](Cn5cc(COC6OC(COC(C)=O)C(OC(C)=O)C(OC(C)=O)C6OC(C)=O)nn5)O4)O3)nn2)C(OC(C)=O)C(OC(C)=O)C1OC(C)=O (stereo partly drawn),4.63%

row,Structure (SMILES),"hERG current change (%, negative = inhibition) at 1uM"
1,O=C(O)CCc1ccc(-c2ccccc2)n1NC(=O)c1ccco1,14.5%
2,Cc1cc(Cl)ccc1NC(=S)NC1CCCC1,12.9%
3,COc1ccc(S(=O)(=O)N2CC=C(C(=O)NC3CCCC3)CC2)cc1,8%
4,COc1ccc(NC2=NCC(=O)N2Cc2cccs2)cc1.Cl,0.573%
5,COc1ccc(C(=O)C=CNNC(=O)c2ccc(Cl)cc2)cc1,17.6%
6,CCCCNC(=O)CSc1nc2cc3c(cc2c(=O)n1CCCN(CC)CC)OCO3,-36%
7,COC(=O)Cc1cc(=O)[nH]c(Nc2nc3ccccc3o2)n1,-7.47%
8,COc1cccc(-c2noc(CCC(=O)NC3CCCCC3)n2)c1,0.894%
9,CN(C)C(=O)On1c(-c2ccccc2)nc2ccc(Cl)cc21,-8.66%
10,Cc1ccccc1C(=O)Nc1ccc2c(C#N)c3nc4ccccc4nc3n2c1,7.67%
11,O=C(Cc1ccccc1)NCc1ccc(F)cc1,7.57%
12,CCCCN(C(=O)COc1ccc(NC(C)=O)cc1)C1CCS(=O)(=O)C1 (stereo not drawn),9.63%
13,COCC(=O)n1nc(NCc2ccc(OC)cc2)nc1NCc1ccc(OC)cc1,2.97%
14,Cc1cc(C)n2nc(C)c(Br)c2n1,20.3%
15,COCCCn1c(=S)[nH]c2c(sc3ccccc32)c1=O,14.1%
16,COCC1CCN(C(=O)c2cc(COc3cc(C)c(Cl)c(C)c3)on2)C1 (stereo not drawn),11.8%
17,CCNS(=O)(=O)c1cc(OC)c(Cl)cc1OC,4.57%
18,Cc1ccc(NC(=O)CCC(=O)N/N=C/c2cccs2)cc1C,-1.15%
19,CCCCNC(=O)COC(=O)c1ccc(Cl)c(S(=O)(=O)N2CCCC2)c1,0.201%
20,CCn1c(C)cc(/C=C2/SC(=S)NC2=O)c1C,11%
21,CC(=O)c1ccc(N2CCN(C(=O)c3cc(-c4cccnc4)nc4ccc(Br)cc34)CC2)cc1,3.57%
22,COc1ccccc1C(CNC(=O)c1oc2ccccc2c1C)N1CCCC1 (stereo not drawn),-2.47%
23,Cc1ccc(S(=O)(=O)CCC(=O)OCC(=O)c2cc(C)n(C)c2C)cc1,16.4%

row,Structure (SMILES),"hERG current change (%, negative = inhibition) at 1uM"
1,COc1ccc(C(=O)NNC(=O)Cn2nnc(-c3ccc(OC)c(OC)c3)n2)cc1,4.77%
2,CCCC(C)NC(=O)Cc1ccccc1[N+](=O)[O-] (stereo not drawn),6.28%
3,CSc1nc(SCC(=O)O)c2c3c(sc2n1)COC(C)(C)C3,3.5%
4,O=C1C(Cl)=C(N2CCCCC2)C(=O)N1Cc1ccccc1,10.4%
5,Cc1ccc(C(=O)N(CCN(C)C)CC2CCCN(Cc3ccccc3F)C2)cc1C (stereo not drawn),15.3%
6,Cc1cc(C)c(S(=O)(=O)NNC(=O)C2CCN(Cc3ccccc3)CC2)c(C)c1,9.25%
7,CCCC(=O)Nc1ccc(C#Cc2ccccc2)cc1,3.75%
8,COCCNc1oc(-c2cccs2)nc1S(=O)(=O)c1ccc(C)cc1,-4.5%
9,COC(=O)C1=C(c2cccc(OC)c2OC)C[C@@H]2CC[C@H]1N2C(=O)NCc1ccco1,18.5%
10,O=C(CSc1nc(C(F)(F)F)cc(=O)[nH]1)Nc1ccc2c(c1)OCCO2,-6.12%
11,COC(=O)c1sc(S(=O)(=O)N2CCCCC2C)c(C(=O)OC)c1C (stereo not drawn),6.86%
12,CCn1c(SCC(=O)Nc2nc(C)c(C)s2)nnc1-c1ccco1,-11.2%
13,CC(C)(C)NC(=O)NC(=O)COC(=O)CNS(=O)(=O)/C=C/c1ccccc1,11.2%
14,O=C(O)C1CSCN1S(=O)(=O)c1cccc2nsnc12 (stereo not drawn),8.05%
15,COc1ccc(S(=O)(=O)Nc2cc3c(cc2C(C)=O)OCO3)cc1,12.1%
16,CC(O)CNCCNCc1cccs1.Cl (stereo not drawn),12.5%
17,CCOc1ccc(/C=C/C(=O)Nc2ccc(N3CCOCC3)cc2)cc1,12.7%
18,CSc1ncc(Cl)c(C(=O)Nc2ccccc2Br)n1,12.4%
19,Cc1ccc(-c2cc(C(=O)N/N=C/C=C/c3ccco3)c3ccccc3n2)cc1C,11%
20,O=C(Nc1ccc(Br)cn1)c1cccc(C(=O)Nc2ccc(Br)cn2)c1,8.39%
21,O=C(Nc1ccccc1)Nc1ccccc1C(=O)NCCCN1CCOCC1,10.4%
22,COc1cc(SC)ccc1C(=O)Nc1cccc(S(=O)(=O)NC2=NCCCCC2)c1,6.98%
23,CC(C)CN(CC(C)C)C(=O)CC(=O)NC(=O)c1ccc(Cl)cc1,2.46%

row,Structure (SMILES),"hERG current change (%, negative = inhibition) at 1uM"
1,CC1CCc2sc(C(=O)OCC(=O)NCc3ccc(F)cc3)cc2C1 (stereo not drawn),8.4%
2,CCN(CC(=O)NCCCN1CCOCC1)S(=O)(=O)c1cc(Cl)ccc1Cl,9%
3,COc1ccc(-c2ccc(SCC(=O)NC3CCCCC3)nn2)cc1,9.24%
4,Cn1c(=O)c2cc(S(=O)(=O)NCCC(=O)NCC3CCCO3)ccc2n(C)c1=O (stereo not drawn),9.62%
5,CCN(CC)S(=O)(=O)c1ccc(N2CCCC2)c(NC(=O)C2=COCCO2)c1,-3.65%
6,COc1ccc(N2CCN(C(CNC(=O)c3cccs3)c3ccco3)CC2)cc1 (stereo not drawn),17.1%
7,O=C(Cn1cnc2ccccc2c1=O)N1CCN(c2ccccc2)CC1,3.53%
8,COc1ccc(CN2CCCN(C)CC2)c(OC)c1C,14.5%
9,C/C(=N\NC(=O)Cc1c(C)[nH][nH]c1=O)c1cccc(Br)c1,8.02%
10,COc1ccc(S(=O)(=O)Nc2ccccn2)c(C)c1C,15.9%
11,COc1ccc(C(=O)N(Cc2sccc2C)C2CCS(=O)(=O)C2)cc1 (stereo not drawn),-6.49%
12,Clc1ccc(N=C2SCCS2)cc1,9.23%
13,CCC(C)(C)n1nnnc1C(c1ccc(C)cc1)N1CCSCC1 (stereo not drawn),-3.34%
14,C/C(=N\NC(=O)CC#N)C1COc2ccccc2O1 (stereo not drawn),12.1%
15,COC(=O)c1ccccc1NC(=O)CCCn1nc([N+](=O)[O-])c(Br)c1C,5.37%
16,O=C(Nc1cccc(C(F)(F)F)c1)c1cccc(NS(=O)(=O)c2ccc(O)c(C(=O)O)c2)c1,11.4%
17,Cc1ccc(C(=O)NNC(=S)NC(=O)c2ccccc2)cc1,12.5%
18,O=C1c2ccccc2C(=O)N1c1ccc(Cl)cc1,15.6%
19,NC(=O)N[C@@H](Cc1c[nH]c2ccccc12)C(=O)OCC(=O)N1CCCCC1,11.8%
20,CCOC(=O)c1cc(-c2ccc3c(c2)OCO3)nc2onc(C)c12,10.9%
21,CCOC(=O)N1CCN(C(=O)c2c(-c3ccccc3)noc2C)CC1,1.6%
